Earlier results on 3 compounds are cited in patent US20180220653A1, “Methods for Identifying Compounds that Directly Bind to Insect Transient Receptor Potential Channels” (priority 2015, published 2018).

Data set [1] concerns the target T1, insect TRPV channels, Nan and Iav (Drosophila melanogaster, UniProt M9PI57+Q9W3W0).
T1 sequence (M9PI57 1-834): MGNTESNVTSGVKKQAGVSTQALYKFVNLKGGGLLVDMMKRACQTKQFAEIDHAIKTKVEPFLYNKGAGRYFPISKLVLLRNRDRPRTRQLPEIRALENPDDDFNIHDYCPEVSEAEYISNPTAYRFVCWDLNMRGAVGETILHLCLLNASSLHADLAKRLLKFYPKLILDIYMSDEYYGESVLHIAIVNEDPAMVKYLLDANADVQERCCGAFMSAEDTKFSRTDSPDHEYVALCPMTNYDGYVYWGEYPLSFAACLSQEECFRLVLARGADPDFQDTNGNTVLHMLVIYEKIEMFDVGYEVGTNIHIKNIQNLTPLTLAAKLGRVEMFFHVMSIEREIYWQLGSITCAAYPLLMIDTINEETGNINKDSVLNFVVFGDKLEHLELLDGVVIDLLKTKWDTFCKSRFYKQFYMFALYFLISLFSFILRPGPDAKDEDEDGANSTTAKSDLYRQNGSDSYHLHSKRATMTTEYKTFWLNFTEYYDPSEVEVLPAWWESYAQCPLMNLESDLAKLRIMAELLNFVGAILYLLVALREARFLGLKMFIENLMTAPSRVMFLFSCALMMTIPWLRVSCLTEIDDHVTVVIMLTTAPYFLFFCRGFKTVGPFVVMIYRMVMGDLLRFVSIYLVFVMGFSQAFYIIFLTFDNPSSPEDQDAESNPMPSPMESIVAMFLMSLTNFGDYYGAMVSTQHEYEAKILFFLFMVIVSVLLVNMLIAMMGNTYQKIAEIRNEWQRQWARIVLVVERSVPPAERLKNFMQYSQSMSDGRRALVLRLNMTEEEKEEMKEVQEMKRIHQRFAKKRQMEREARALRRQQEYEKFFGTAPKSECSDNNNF
T1 sequence (Q9W3W0 1-1123): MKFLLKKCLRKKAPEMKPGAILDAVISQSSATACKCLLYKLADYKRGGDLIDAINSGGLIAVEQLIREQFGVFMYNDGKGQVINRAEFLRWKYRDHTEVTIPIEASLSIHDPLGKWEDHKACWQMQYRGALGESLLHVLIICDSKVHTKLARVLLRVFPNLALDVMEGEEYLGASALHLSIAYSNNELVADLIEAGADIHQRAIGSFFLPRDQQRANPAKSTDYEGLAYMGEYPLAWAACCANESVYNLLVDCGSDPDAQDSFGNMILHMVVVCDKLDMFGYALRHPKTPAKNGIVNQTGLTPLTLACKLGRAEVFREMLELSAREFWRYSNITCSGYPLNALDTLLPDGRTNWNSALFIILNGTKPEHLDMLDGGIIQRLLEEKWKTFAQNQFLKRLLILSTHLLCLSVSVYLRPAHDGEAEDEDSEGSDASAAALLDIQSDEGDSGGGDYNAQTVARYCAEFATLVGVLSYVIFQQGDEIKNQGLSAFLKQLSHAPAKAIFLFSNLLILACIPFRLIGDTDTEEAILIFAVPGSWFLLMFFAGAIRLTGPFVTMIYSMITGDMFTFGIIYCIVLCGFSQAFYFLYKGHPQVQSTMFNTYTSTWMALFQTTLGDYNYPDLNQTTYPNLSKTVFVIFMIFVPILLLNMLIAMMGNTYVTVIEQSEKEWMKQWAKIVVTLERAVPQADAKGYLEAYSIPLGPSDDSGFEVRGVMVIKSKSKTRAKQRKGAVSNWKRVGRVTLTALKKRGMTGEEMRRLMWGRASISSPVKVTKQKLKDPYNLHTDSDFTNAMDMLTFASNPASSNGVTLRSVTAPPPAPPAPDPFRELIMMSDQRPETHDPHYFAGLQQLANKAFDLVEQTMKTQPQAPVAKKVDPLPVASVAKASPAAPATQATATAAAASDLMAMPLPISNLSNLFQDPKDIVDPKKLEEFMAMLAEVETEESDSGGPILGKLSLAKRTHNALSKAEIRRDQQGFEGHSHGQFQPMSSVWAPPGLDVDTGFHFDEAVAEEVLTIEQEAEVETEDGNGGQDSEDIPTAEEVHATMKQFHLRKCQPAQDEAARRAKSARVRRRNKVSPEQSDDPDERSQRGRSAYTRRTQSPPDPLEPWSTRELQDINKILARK
The note with it: CHO cells co-infected with Nan and Iav; Nesterov et al., 2013; 2015; cited from earlier work.

Data set [2] deals with T1, insect TRPV channels, Nan and Iav. The note with it: CHO cells co-infected with Nan and Iav; Nesterov et al., 2013; 2015; cited from earlier work. This is another data set of the same source.

Molecules are shown by their SMILES.

`CC1=NNC(=O)N(/N=C/c2cccnc2)C1` [pymetrozine]: the calcium mobilization result in data set [1] is “elicited calcium mobilization”. The membrane depolarization entry in data set [2] is recorded as “membrane depolarization”.
As for `CC(=O)N1C(=O)N(NCc2cccnc2)Cc2cc(C(F)(C(F)(F)F)C(F)(F)F)ccc21` [pyrifluquinazon], the calcium mobilization entry in data set [1] is “elicited calcium mobilization”. Further, the membrane depolarization result in data set [2] is recorded as “membrane depolarization”.
`O=C1Nc2ccc(C(F)(C(F)(F)F)C(F)(F)F)cc2CN1NCc1cccnc1` [N-deacetylated pyrifluquinazon]: the calcium mobilization entry in data set [1] was “elicited calcium mobilization”. Further, the membrane depolarization entry in data set [2] is “membrane depolarization”.
